Among all 45,000 compounds or so, about 65 (0.1%) were called active. Calls follow the shape of the dose curve; as a rule, active = well fitted activation curve with a large enough effect; inconclusive = small, poorly fitted or top-dose-only effect; inactive = no such curve, though single readings can be large or run the other way. Some of the results follow.
The molecules below were run against Galactocerebrosidase (Homo sapiens) (UniProt P54803) (assay: A Novel Cell-Based Assay to Identify Small Molecules for B -Galactocerebrosidase). Conditions: 145M-Twi-hGALC-G270D cells (Twitcher mouse brain line with human GALC G270D), HMU-beta-Gal fluorescence, 48 h; series mostly up to 57.5 µM; activation: at the top concentration.
Chain of UniProt P54803 (P54803 whole entry, looked up): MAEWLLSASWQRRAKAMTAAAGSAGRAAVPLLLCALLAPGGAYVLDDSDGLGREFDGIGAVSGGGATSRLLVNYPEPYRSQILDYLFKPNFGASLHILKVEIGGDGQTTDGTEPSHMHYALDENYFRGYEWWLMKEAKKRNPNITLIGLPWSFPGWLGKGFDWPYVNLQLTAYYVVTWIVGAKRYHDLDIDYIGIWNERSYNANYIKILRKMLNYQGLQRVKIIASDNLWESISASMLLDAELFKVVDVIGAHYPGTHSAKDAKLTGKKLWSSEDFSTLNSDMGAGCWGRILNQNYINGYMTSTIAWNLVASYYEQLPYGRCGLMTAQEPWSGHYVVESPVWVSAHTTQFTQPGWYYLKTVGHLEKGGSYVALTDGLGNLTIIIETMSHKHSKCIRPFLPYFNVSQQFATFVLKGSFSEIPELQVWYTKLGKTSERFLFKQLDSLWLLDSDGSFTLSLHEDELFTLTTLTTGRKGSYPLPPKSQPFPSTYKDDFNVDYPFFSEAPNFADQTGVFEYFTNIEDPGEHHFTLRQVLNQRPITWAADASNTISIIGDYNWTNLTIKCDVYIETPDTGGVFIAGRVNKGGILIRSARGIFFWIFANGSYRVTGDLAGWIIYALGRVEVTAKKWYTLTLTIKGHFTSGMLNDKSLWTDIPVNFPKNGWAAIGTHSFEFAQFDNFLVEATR
Summary of the method: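 Live 145M-Twi cells (Twitcher mouse brain-derived, GALC-null) stably expressing human GALC-G270D, with a wild-type GALC line, were compound-treated. Residual GALC activity was then read as fluorescence from 0.1 mM final HMU-β-gal at pH 5.2; higher signal means activation.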
Also: 0% is about no effect; nearly all actives have a fitted effect of over 65% in size.

activation, inactive:
COc1ccc(Nc2c(-c3ccc(C)o3)nc3ccc(Cl)cn23)cc1 -4.39%
CCc1nn(Cc2cccc(F)c2)c(=O)c2cc3cc(C)ccc3n12 -6.72%
CCC(C)NC(=O)Cn1c(=O)n(-c2ccc(Cl)c(Cl)c2)c(=O)c2c(C)c(C(=O)N(CC)CC)sc21 (centres undefined) -10.7%
Cc1ccc(-n2ncc(C(=O)N3CCN(c4ccccn4)CC3)c2C2CCN(C(=O)OC(C)(C)C)CC2)cc1 -12.4%
CCCCC(=O)Nc1cc2nn(-c3ccc(OCC)cc3)nc2cc1C -17.7%
Cc1cccc(C)c1Nc1c(-c2cccs2)nc2ncccn12 -12.3%
CCCCCCCCCCC[C@@H](C[C@@H]1OC(=O)[C@H]1CCCCCC)OC(=O)[C@H](CC(C)C)NC=O -12.2%
Cn1c(=O)c2c(SCC(=O)NCC3CCCO3)nc(-c3cccc(F)c3)nc2n(C)c1=O (centres undefined) -14.4%
Cc1cccc(OCCSc2nc3ccc(NC(=O)c4cccs4)cc3s2)c1 -40.6%
Cc1cccc(Cn2cc(S(=O)(=O)c3ccc(Cl)cc3)c(=O)c3cc4c(cc32)OCO4)c1 -14.8%
CC(=O)c1ccc(NC(=O)c2ccc(NC(=O)CCS(=O)(=O)c3cccs3)cc2)cc1 10.5%
Cc1ccc(OCC(=O)Nc2cc(-c3nc4ccccc4[nH]3)ccc2C)c(C)c1 -20.7%
COc1cc(C2c3c(oc4ccc(C)cc4c3=O)C(=O)N2Cc2ccccc2)ccc1O (centres undefined) -10%
Cc1oc(-c2ccc(Cl)cc2)nc1CSCC(=O)NCc1ccccc1Cl -14.8%
COc1cccc(C(=O)Nc2c(C(=O)c3ccc(F)cc3)oc3ccccc23)c1 11.8%
COC(=O)Cc1c(C)c2ccc3c(c2oc1=O)CN(Cc1ccccc1OC)CO3 -14.7%
CCC(=O)N1CCc2cc(Br)cc(S(=O)(=O)N3CCCC(C(=O)NCc4ccc(OC)cc4)C3)c21 (centres undefined) -8.47%
CC(CNC(=O)Cn1c(-c2cccs2)cc2ccccc21)c1ccccc1 (centres undefined) -0.61%
Cc1ccccc1Nc1cc(C(=O)NCCc2ccc(Cl)cc2)c2ccccc2n1 -13.2%
Cc1ccc2c(CC(=O)N(Cc3ccc(Cl)cc3)Cc3ccco3)coc2c1 -3.76%
CCC(=O)N1CCCc2cc(S(=O)(=O)N3CCC(C(=O)Nc4ccccc4CC)CC3)ccc21 -9.24%
CCCOc1ccc(C2c3c(-c4ccccc4O)n[nH]c3C(=O)N2CCCOCC)cc1OCC (centres undefined) -34.5%
Cc1ccc(Cl)cc1N1CCN(CCCNC(=O)c2nnc(Cc3cccc(Cl)c3)o2)CC1 -40.6%
O=C(Nc1cccc(F)c1)c1cccc2c1C(=O)N(C1CCCCC1)C2 -6.26%
CN1CCc2nc3sc(C(=O)Nc4cccc(C#N)c4)c(N)c3cc2C1 -17%
Cc1cc(C)cc(Nc2nnc(-n3nc(C)cc3C)c3ccccc23)c1 -25.6%
CC1=C(c2ccc(C)c(C)c2)S(=O)(=O)N=C1N1CCC(C(=O)Nc2cccc(F)c2)CC1 -10.5%
COc1ccccc1NC(=O)Cn1c(=O)n(-c2cccc(Cl)c2)c(=O)c2c1c1cc(C)ccc1n2C -6.86%
COc1cccc(NC(=O)CSc2nnc(-c3cccs3)o2)c1 -25.1%
Cc1cccc(OCC(=O)Nc2ccc(Cl)c(-c3nc4ccccc4[nH]3)c2)c1 3.69%
CCc1ccccc1NC(=O)CSc1ncc(S(=O)(=O)c2ccccc2)c(=O)[nH]1 -10.7%
CCOC(=O)c1ccc(CN(Cc2ccccc2C)S(=O)(=O)c2ccc(F)c(C(=O)Nc3cccc(OC)c3)c2)cc1 -13%
O=C(CC1C(=O)N(c2ccccc2)C(=O)N1Cc1ccc2c(c1)OCO2)Nc1ccccc1 (centres undefined) -6.89%
Cc1c(C)n(Cc2ccc(F)cc2)c2ccc(C(=O)Nc3ccc(Cl)cc3)cc12 0.588%
Cc1ccc(-c2cc3c(n2-c2ccccc2F)CC(C)(C)CC3=O)cc1 -18.6%
O=C1CC(c2nnc(Cc3ccccc3Cl)o2)CN1c1ccccc1 (centres undefined) -7.8%
COc1ccc(C)cc1NC(=O)N1CCN(c2cc(-c3noc(C)n3)ccc2C)CC1 -7.68%
COc1ccc(NC(=O)CN2C(=O)COc3ccc(S(=O)(=O)N4CCCCC4)cc32)cc1Cl 2.19%
O=C(CN1C(=O)CSc2ccc(S(=O)(=O)N3CCCC3)cc21)NCc1ccc(Cl)cc1 -8.34%
CCOC(=O)c1cnc2ccc(C)cc2c1NCCc1ccc(OC)c(OC)c1 -10.6%
Cc1ccc(NC(=O)c2sc3nc(-c4ccc(F)cc4)ccc3c2N)cc1F -14.8%
COc1ccc(NC(=O)c2oc3ccccc3c2NC(=O)Cc2cccs2)cc1 17%
O=C(Cn1cc(C(=O)C2CC2)c2ccccc21)Nc1ccc(Br)cc1 -15.9%
COc1ccccc1N1CCN(c2ccc(-c3nc(-c4ccccc4)no3)cc2[N+](=O)[O-])CC1 -1.08%
CCC1CCCCN1CCCNC(=O)c1ccc2c(c1)N(Cc1ccc(Cl)cc1)C(=O)c1ccccc1S2(=O)=O (centres undefined) -13.4%
CC(=O)c1ccc(NC(=O)CCCc2nc(-c3cccc(C)c3)no2)cc1 -25.8%
Cc1ccc(C)c(Cn2c(=O)n(CCCCCC(=O)NCc3ccc4c(c3)OCO4)c(=O)c3sccc32)c1 -21.6%
O=S(=O)(Nc1cccc(-c2ccc(N3CCCC3)nn2)c1)c1ccc(F)cc1F 0.501%
Cc1ccc(S(=O)(=O)c2nc(-c3cccc(C)c3)oc2N2CCCCC2)cc1 -8.65%
Cc1ccccc1-n1c(=O)c2c3c(sc2n2cnnc12)CCCC3 -26.3%
COc1ccc(CNC(=O)C2CCN(c3nnc(-n4cccc4CNc4ccc(C)cc4)s3)CC2)c(OC)c1 1.98%
COc1ccc(Cn2ccnc2SCC(=O)Nc2cc(C(F)(F)F)ccc2Cl)cc1 -9.54%
COc1cccc(Nc2sc(C(=O)c3ccc(F)cc3)c(N)c2C(=O)NCc2ccc(C)cc2)c1 -25.3%
CCN(CC)C(=O)Cn1c(=O)cc(C)c2c(C)nn(C)c21 -12.7%
CCOC(=O)c1ccccc1NC(=O)c1sc2ccccc2c1Cl -16.6%
COc1ccc(-c2cn3nc(N4CCCC(C(=O)NCc5ccccc5C)C4)sc3n2)cc1 (centres undefined) -12.4%
COc1ccc(NC(=O)CSc2c3c(nc4ccccc24)CCC3)c(OC)c1 -19.5%
COc1ccc(N2CCN(C(=O)CN(C)S(=O)(=O)c3cccs3)CC2)cc1 2.67%
Cc1ccc(Cl)cc1N1CCN(C(=O)c2cc(S(=O)(=O)N3CCCCCC3)cn2C)CC1 -10%
Cc1cc(Cl)ccc1Nc1ncnc2onc(C)c12 -7.27%
CN(Cc1ccc(F)cc1)S(=O)(=O)c1nnc(NC(=O)c2ccc(F)cc2)s1 6.99%
COc1cccc(NC(=O)CSCn2nnc3c(=O)[nH]c(Cc4ccc(F)cc4)nc32)c1 -10.6%
O=C(Nc1ccccc1Cl)C1CCN(c2nc3ccccc3[nH]2)CC1 -7.08%
Fc1ccccc1OCc1nc(-c2ccc(-n3cccc3)cc2)no1 -0.37%
O=C(CN(CCc1ccccc1)S(=O)(=O)c1ccccc1)NCc1ccc(Cl)cc1 -27.9%
COc1cc(CNc2ccc3c(c2)ncn3C(C)C)cc(OC)c1OC -20.4%
COc1ccc(NC(=O)C2CCCN(S(=O)(=O)c3ccc4c(c3)CCCN4C(C)=O)C2)cc1 (centres undefined) 6.39%
COC(=O)c1ccc2c(c1)N(CC(=O)Nc1cccc(C(F)(F)F)c1)C(=O)c1ccccc1S2 -12.9%
O=C(CSc1nc2c([nH]c3ccccc32)c(=O)n1-c1ccccc1F)Nc1ccccc1C(F)(F)F -6.61%
O=C(NCCCN1CCN(c2ccc(F)cc2)CC1)c1sc2ncccc2c1-n1cccc1 -30.4%
O=C(Cn1ccn(-c2cccc(Cl)c2)c(=O)c1=O)c1ccc(F)cc1 1.95%
Cc1ccc(NC(=O)CCS(=O)(=O)c2ccc(Br)cc2)c(C)c1 -15.2%
CCOc1ccc(CNC(=O)c2[nH]c3ccccc3c2Sc2ccc(C)cc2)cc1 -9.82%
Cc1ccc2c(c1)CC(C)N2S(=O)(=O)c1nnc(NC(=O)c2ccccc2F)s1 (centres undefined) -9.91%
CC(C)c1ccccc1NC(=O)CN(c1ccccc1)S(=O)(=O)N(C)C -11.2%
CCOc1ccc(-c2nn(-c3ccccc3)cc2C2NC(=O)NC(C)=C2C(=O)OC(C)C)cc1C (centres undefined) -29.6%
O=C1C(c2ccc(F)cc2)N(Cc2ccccc2Cl)C(=O)CN1C1CCCCC1 (centres undefined) -15.8%
Cc1cc(C)cc(NC(=O)CCS(=O)(=O)c2ccc3nc(C)sc3c2)c1 -8.43%
Cc1ccc(-n2nc(CO)c(C(=O)NCCCCc3ccccc3)n2)cc1 -7.84%
CCOC(=O)c1cc(-c2ccccc2)n(CCC(=O)Nc2ccc(C)cc2Cl)c1C -9.08%
Cc1ccc2c(c1)C(=O)C(=O)N2Cc1ccc(OC(C)C)cc1 -38.4%
COc1ccc(OC)c(S(=O)(=O)N2Cc3ccccc3CC2C(=O)Nc2ccc(Cl)cc2)c1 (centres undefined) -6.42%
O=C(Nc1ccc(F)cc1)C1CCCN(c2ncnc3c2nc2n3CCCCC2)C1 (centres undefined) -8.74%
Cc1ccc(N(C)C(=O)Cn2cc(S(=O)(=O)N3CCCC3)c(S(=O)(=O)N3CCCC3)c2)cc1 -12.8%
O=C(Nc1cc2ccc(O)cc2oc1=O)c1ccc(F)cc1 21.8%
CCOC(=O)c1[nH]c(C)c(CCC(=O)NC(C)c2ccccc2)c1C (centres undefined) -17%
CCOC(=O)c1ccc(NC(=O)C(C)N(c2ccc(OCC)cc2)S(C)(=O)=O)cc1 (centres undefined) -13.5%
Cc1c(C(=O)Nc2ccc(F)c(F)c2)oc2ccc(S(=O)(=O)N(C)C3CCCCC3)cc12 -9.38%
COc1ccc(CNC(=O)c2cc3c(=O)n4cccc(C)c4nc3s2)cc1 -8.65%
COc1cccc(CNC(=O)c2oc3ccc4c(c3c2C)C(=O)CC(C)(C)O4)c1OC -8.68%
COc1ccc(CCNC(=O)CCCCn2c(=O)c3ccccc3n(Cc3ccc(Cl)cc3)c2=O)cc1OC -1.07%
Cc1cccc(CNC(=O)Cc2ccc(NC(=O)N3CCCCc4ccccc43)cc2)c1 -6.16%
CCOc1ccc(-c2cn3c(n2)sc2cc(C(=O)NCCCN(CC)CC)ccc23)cc1 -15.2%
CCN(CC)CCn1c2c(c(SCC(=O)Nc3cccc(C(F)(F)F)c3)nc1=O)CCC2 4.48%
